{"source": "PubChem BioAssay AID588855", "about": "(National Center for Advancing Translational Sciences (NCATS), 2011)", "note": "The campaign covered roughly 410,000 compounds. About 5,000 (1.2%) were called active. This list was built around the results that the source calls inconclusive (neither active nor inactive); the mix of calls is not that of the screen. Calls come from the whole dose curve; as a rule, active = well fitted inhibition curve with a large enough effect; inconclusive = small, poorly fitted or top-dose-only effect; inactive = no such curve, though single readings can be large or run the other way. Potencies beside an inconclusive call are fits to weak or partial responses and may not hold up. Potency is the fitted concentration of half-maximal effect; tags give direction and shape of the fitted curve."}
{"assay": "qHTS for Inhibitors of TGF-b; note: nearly all actives have a fitted effect of over 65% in size", "details": "HepG2 CAGA-GFP TGF-b/SMAD3 reporter, GFP fluorescence, 18 h, TGF-beta stimulated, 500 pg/mL final; series mostly up to 46.1 µM", "procedure,_shortened": "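Cell-based qHTS in HEPG2 carrying a CAGA-GFP Smad reporter; compounds added before 500 pg/mL final TGF-beta, 18 h incubation at 37 degrees C, GFP fluorescence quantified per cell by imaging cytometry.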"}
{"smiles": "CN(C)c1ccc(S(=O)(=O)N2CCCCC2)cc1NC(=O)COc1ccccc1F", "Potency": "inconclusive: 31.6 µM [inhibitor, single point]"}
{"smiles": "CC(C)(C)c1ccc(-c2noc(CCC(=O)Nc3cccnc3)n2)cc1", "Potency": "inconclusive: 10 µM [inhibitor, partial curve]"}
{"smiles": "Cn1ccc2c(N3CCCCCC3)cc3c(c21)C1CCC3C1", "note": "(centres undefined)", "Potency": "inconclusive: 22.4 µM [inhibitor, single point]"}
{"smiles": "O=C(NCc1ccc2c(c1)OCO2)C1CCN(S(=O)(=O)c2cccs2)CC1", "Potency": "inconclusive: 25.1 µM [inhibitor, partial curve, poor fit]"}
{"smiles": "Clc1cccc(-c2cc3nc4c(c(N5CCOCC5)n3n2)CCCC4)c1", "Potency": "inconclusive: 35.5 µM [inhibitor, partial curve, poor fit]"}
{"smiles": "O=C1NC(=S)S/C1=C\\c1cc(Cl)cc(Cl)c1O", "Potency": "inconclusive: 35.5 µM [inhibitor, single point]"}
{"smiles": "Cc1cc2ccccc2n1-c1ccc(C(=O)N2CCCCC2)s1", "Potency": "inconclusive: 14.1 µM [inhibitor, single point]"}
{"smiles": "O=C(CCl)Nc1cccc(CP(=O)(c2ccccc2)c2ccccc2)c1", "Potency": "inconclusive: 11.2 µM [inhibitor, partial curve, poor fit]"}
{"smiles": "COc1ccc(Nc2cc(C)nc(NCc3ccccc3)n2)cc1", "Potency": "active: 12.6 µM"}
{"smiles": "O=C(/C(=C/c1cccnc1)n1ccnc1)c1ccc(Cl)cc1Cl", "Potency": "inactive"}
{"smiles": "C#CCN1C=CC(=O)[C@@H](OC(=O)Nc2ccccc2Br)[C@H]1c1ccccc1Br", "Potency": "inconclusive: 4.47 µM [inhibitor, single point]"}
{"smiles": "CCN1C[C@@H]2[C@@H]3C(=O)N(C)C(=O)[C@@H]3[C@](CC)(C1=O)N2C(=O)c1ccc(C(C)(C)C)cc1", "Potency": "inactive"}
{"smiles": "CCCCOc1cccc(C(=O)Nc2cc3nn(-c4ccc(F)cc4)nc3cc2C)c1", "Potency": "inconclusive: 6.31 µM [inhibitor, single point]"}
{"smiles": "C=CCn1c(=NC(=O)c2cc(Cl)sc2Cl)sc2cc(S(N)(=O)=O)ccc21", "Potency": "inconclusive: 22.4 µM [inhibitor, single point]"}
{"smiles": "O=C(Cc1nc(-c2ccc([N+](=O)[O-])cc2)cs1)Nc1ccccc1", "Potency": "inactive"}
{"smiles": "OCCNCCCCOc1ccc(OCc2ccccc2)cc1", "Potency": "inactive"}
{"smiles": "Cc1nc2ccc(NC(=O)NC(=O)c3c(Cl)cccc3Cl)cc2o1", "Potency": "inactive"}
{"smiles": "NC(=S)N/N=C/c1ccc(Br)o1", "Potency": "inconclusive: 35.5 µM [inhibitor, single point]"}
{"smiles": "Cc1ccc(CNS(=O)(=O)c2ccc3c(c2)NC(=O)C(C)S3)cc1", "note": "(centres undefined)", "Potency": "inconclusive: 35.5 µM [inhibitor, single point]"}
